# The supplement of paper PMC8728848
# This is one part of the list.
# B1: HPA (Helix pomatia), Q575S3 (protein)
# chain: MWAHLTGLLLICALSLSAAQRAQTGEIDCGSDSSWPKDPSDNPNRDNTREIVKHVTFSPQFCREPKVILSVTTLDAEHTKNLRYEARLKSVSPSGLSASCYSWHDGTIYRMKLSWLAVED
# Legend:
# Experiment in all cases: glycan array binding signal (z-score within array); higher = stronger binding
# Conditions in all cases: glycan notation: IUPAC condensed, linker removed
# [1] = target: Fuc(a1-4)GlcNAc
# In short: (§1)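 The Consortium for Functional Glycomics database supplied 3228 glycan arrays, of which those lacking an available protein sequence were dropped. The binding signal, a within-array Z-score, was averaged across arrays of the same protein sequence and across linkers. Negative scores can be read as non-binding.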
# [2] = target: Fuc(b1-3)GlcNAc
# In short: as §1
# [3] = target: Gal(a1-2)Gal
# In short: as §1
# [4] = target: Gal(a1-3)Gal
# In short: as §1
# [5] = target: Gal(a1-3)Gal(b1-3)GlcNAc
# In short: as §1
# [6] = target: Gal(a1-3)Gal(b1-3)GlcNAc(b1-2)Man
# In short: as §1
# [7] = target: Gal(a1-3)Gal(b1-3)GlcNAc(b1-2)Man(a1-3)[Gal(a1-3)Gal(b1-3)GlcNAc(b1-2)Man(a1-6)]Man(b1-4)GlcNAc(b1-4)GlcNAc
# In short: as §1
# [8] = target: Gal(a1-3)Gal(b1-3)GlcNAc(b1-3)GalNAc
# In short: as §1
# [9] = target: Gal(a1-3)Gal(b1-3)GlcNAc(b1-6)GalNAc
# In short: as §1
# [10] = target: Gal(a1-3)Gal(b1-3)[Fuc(a1-4)]GlcNAc(b1-2)Man(a1-3)[Gal(a1-3)Gal(b1-3)[Fuc(a1-4)]GlcNAc(b1-2)Man(a1-6)]Man(b1-4)GlcNAc(b1-4)GlcNAc
# In short: as §1
# [11] = target: Gal(a1-3)Gal(b1-4)Glc
# In short: as §1
# [12] = target: Gal(a1-3)Gal(b1-4)GlcNAc
# In short: as §1
# [13] = target: Gal(a1-3)Gal(b1-4)GlcNAc(b1-2)Man
# In short: as §1
# [14] = target: Gal(a1-3)Gal(b1-4)GlcNAc(b1-2)Man(a1-3)[Gal(a1-3)Gal(b1-4)GlcNAc(b1-2)Man(a1-6)]Man(b1-4)GlcNAc(b1-4)GlcNAc
# In short: as §1
# [15] = target: Gal(a1-3)Gal(b1-4)GlcNAc(b1-3)GalNAc
# In short: as §1
# [16] = target: Gal(a1-3)Gal(b1-4)GlcNAc(b1-6)GalNAc
# In short: as §1
# [17] = target: Gal(a1-3)Gal(b1-4)[Fuc(a1-3)]GlcNAc
# In short: as §1
# [18] = target: Gal(a1-3)Gal(b1-4)[Fuc(a1-3)]GlcNAc(b1-2)Man(a1-3)[Gal(a1-3)Gal(b1-4)[Fuc(a1-3)]GlcNAc(b1-2)Man(a1-6)]Man(b1-4)GlcNAc(b1-4)GlcNAc
# In short: as §1
# [19] = target: Gal(a1-3)GalNAc
# In short: as §1
# [20] = target: Gal(a1-3)[Gal(a1-4)]Gal(b1-4)GlcNAc
# In short: as §1
# [21] = target: Gal(a1-4)Gal(b1-3)GlcNAc(b1-2)Man(a1-3)[Gal(a1-4)Gal(b1-3)GlcNAc(b1-2)Man(a1-6)]Man(b1-4)GlcNAc(b1-4)GlcNAc
# In short: as §1
# [22] = target: Gal(a1-4)Gal(b1-4)Glc
# In short: as §1
# [23] = target: Gal(a1-4)Gal(b1-4)GlcNAc
# In short: as §1
# [24] = target: Gal(a1-4)Gal(b1-4)GlcNAc(b1-2)Man(a1-3)[Gal(a1-4)Gal(b1-4)GlcNAc(b1-2)Man(a1-6)]Man(b1-4)GlcNAc(b1-4)GlcNAc
# In short: as §1
# [25] = target: Gal(a1-4)Gal(b1-4)GlcNAc(b1-3)Gal(b1-4)Glc
# In short: as §1
# [26] = target: Gal(a1-4)GlcNAc
# In short: as §1
# [27] = target: Gal(a1-6)Glc
# In short: as §1
# [28] = target: Gal(b1-2)Gal
# In short: as §1
# [29] = target: Gal(b1-3)Gal
# In short: as §1
# [30] = target: Gal(b1-3)Gal(b1-4)GlcNAc
# In short: as §1
# [31] = target: Gal(b1-3)Gal(b1-4)GlcNAc(b1-2)Man(a1-3)[Gal(b1-3)Gal(b1-4)GlcNAc(b1-2)Man(a1-6)]Man(b1-4)GlcNAc(b1-4)GlcNAc
# In short: as §1
# [32] = target: Gal(b1-3)GalNAc
# In short: as §1
# [33] = target: Gal(b1-3)GalNAc(a1-3)[Fuc(a1-2)]Gal(b1-4)Glc
# In short: as §1
# [34] = target: Gal(b1-3)GalNAc(a1-3)[Fuc(a1-2)]Gal(b1-4)GlcNAc
# In short: as §1
# [35] = target: Gal(b1-3)GalNAc(b1-3)Gal
# In short: as §1
# [36] = target: Gal(b1-3)GalNAc(b1-3)Gal(a1-4)Gal(b1-4)Glc
# In short: as §1
# [37] = target: Gal(b1-3)GalNAc(b1-4)Gal(b1-4)Glc
# In short: as §1
# [38] = target: Gal(b1-3)GalNAc(b1-4)[Neu5Ac(a2-3)]Gal(b1-4)Glc
# In short: as §1
# [39] = target: Gal(b1-3)GlcNAc
# In short: as §1
# [40] = target: Gal(b1-3)GlcNAc(a1-3)Gal(b1-4)GlcNAc
# In short: as §1
# [41] = target: Gal(b1-3)GlcNAc(a1-6)Gal(b1-4)GlcNAc
# In short: as §1
# [42] = target: Gal(b1-3)GlcNAc(b1-2)Man
# In short: as §1
# [43] = target: Gal(b1-3)GlcNAc(b1-2)Man(a1-3)[Gal(b1-3)GlcNAc(b1-2)Man(a1-6)]Man(b1-4)GlcNAc(b1-4)GlcNAc
# In short: as §1
# [44] = target: Gal(b1-3)GlcNAc(b1-2)Man(a1-3)[Gal(b1-3)GlcNAc(b1-2)Man(a1-6)]Man(b1-4)GlcNAc(b1-4)[Fuc(a1-6)]GlcNAc
# In short: as §1
# [45] = target: Gal(b1-3)GlcNAc(b1-2)Man(a1-3)[GlcNAc(b1-4)][Gal(b1-3)GlcNAc(b1-2)Man(a1-6)]Man(b1-4)GlcNAc(b1-4)GlcNAc
# In short: as §1
binder,measurement,setting,value
B1,glycan array binding signal (z-score),[1],-0.265
same,glycan array binding signal (z-score),[2],-0.261
same,glycan array binding signal (z-score),[3],-0.263
same,glycan array binding signal (z-score),[4],-0.254
same,glycan array binding signal (z-score),[5],-0.256
same,glycan array binding signal (z-score),[6],-0.26
same,glycan array binding signal (z-score),[7],-0.235
same,glycan array binding signal (z-score),[8],-0.236
same,glycan array binding signal (z-score),[9],-0.264
same,glycan array binding signal (z-score),[10],-0.233
same,glycan array binding signal (z-score),[11],-0.261
same,glycan array binding signal (z-score),[12],-0.261
same,glycan array binding signal (z-score),[13],-0.248
same,glycan array binding signal (z-score),[14],-0.238
same,glycan array binding signal (z-score),[15],-0.251
same,glycan array binding signal (z-score),[16],-0.255
same,glycan array binding signal (z-score),[17],-0.27
same,glycan array binding signal (z-score),[18],-0.245
same,glycan array binding signal (z-score),[19],-0.217
same,glycan array binding signal (z-score),[20],0.059
same,glycan array binding signal (z-score),[21],-0.232
same,glycan array binding signal (z-score),[22],-0.257
same,glycan array binding signal (z-score),[23],-0.261
same,glycan array binding signal (z-score),[24],-0.222
same,glycan array binding signal (z-score),[25],-0.258
same,glycan array binding signal (z-score),[26],-0.265
same,glycan array binding signal (z-score),[27],-0.266
same,glycan array binding signal (z-score),[28],-0.259
same,glycan array binding signal (z-score),[29],-0.259
same,glycan array binding signal (z-score),[30],-0.251
same,glycan array binding signal (z-score),[31],-0.266
same,glycan array binding signal (z-score),[32],-0.089
same,glycan array binding signal (z-score),[33],0.169
same,glycan array binding signal (z-score),[34],0.617
same,glycan array binding signal (z-score),[35],-0.258
same,glycan array binding signal (z-score),[36],-0.263
same,glycan array binding signal (z-score),[37],-0.26
same,glycan array binding signal (z-score),[38],-0.269
same,glycan array binding signal (z-score),[39],-0.258
same,glycan array binding signal (z-score),[40],-0.252
same,glycan array binding signal (z-score),[41],-0.251
same,glycan array binding signal (z-score),[42],0.558
same,glycan array binding signal (z-score),[43],-0.259
same,glycan array binding signal (z-score),[44],-0.259
same,glycan array binding signal (z-score),[45],-0.244
